Reference: the supplement of paper PMC4967469

What was measured:
Experiment in all cases: Viability of human cancer cell lines after 72 h of drug (GDSC screen)
Midostaurin = compound: CO[C@@H]1[C@H](N(C)C(=O)c2ccccc2)C[C@H]2O[C@]1(C)n1c3ccccc3c3c4c(c5c6ccccc6n2c5c31)C(=O)NC4 [Midostaurin]; details: top dose 0.512 µM; top dose inferred
Experimental: (§1)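 Human cancer cell lines in 384-well plates, medium with 10% serum, drug for 72 h over a 256-fold dose range (nine 2-fold or five 4-fold steps up to the top dose). Adherent lines were fixed and stained with the nucleic acid dye Syto60, suspension lines read with resazurin; signal relative to control wells, capped at 0 and 100%. One two-parameter sigmoid per drug and line, fitted in a mixed model over all curves with the slope shared within a line.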

Mitomycin C = compound: CO[C@@]12[C@H](COC(N)=O)C3=C(C(=O)C(C)=C(N)C3=O)N1C[C@@H]1N[C@@H]12 [Mitomycin C]; details: top dose 16 µM
Experimental: as §1

Bosutinib = compound: COc1cc(Nc2c(C#N)cnc3cc(OCCCN4CCN(C)CC4)c(OC)cc23)c(Cl)cc1Cl [Bosutinib]; details: top dose 2 µM
Experimental: as §1

NVP-BHG712 = compound: Cc1ccc(C(=O)Nc2cccc(C(F)(F)F)c2)cc1Nc1nc(-c2cccnc2)nc2c1cnn2C [NVP-BHG712]; details: top dose 10.24 µM; top dose inferred
Experimental: as §1

IOX2 = compound: O=C(O)CNC(=O)c1c(O)c2ccccc2n(Cc2ccccc2)c1=O [IOX2]; details: top dose 0.1 µM; top dose inferred
Experimental: as §1

Cell Line | AUC (Midostaurin) | IC50 (Midostaurin) [µM] | AUC (Mitomycin C) | IC50 (Mitomycin C) [µM] | AUC (Bosutinib) | IC50 (Bosutinib) [µM] | AUC (NVP-BHG712) | IC50 (NVP-BHG712) [µM] | AUC (IOX2) | IC50 (IOX2) [µM]
HH (T-cell leukaemia, suspension) | 0.942 | > 0.512 | 0.501 | 1.01 | 0.97 | > 2 | 0.72 | 3.35 | 0.971 | > 0.1
SK-MEL-30 (melanoma, adherent) | 0.851 | 0.426 | 0.378 | 0.452 | 0.985 | > 2 | 0.595 | 1.18 | 0.982 | > 0.1
SK-HEP-1 (liver, adherent) | 0.882 | 0.48 | 0.432 | 0.661 | 0.879 | 1.82 | 0.963 | > 10.2 | 0.987 | > 0.1
42-MG-BA (glioma, adherent) | 0.736 | 0.159 | 0.65 | 2.68 | 0.953 | > 2 | 0.939 | > 10.2 | 0.984 | > 0.1
TT (thyroid, adherent) | 0.978 | > 0.512 | 0.656 | 3.22 | 0.938 | > 2 | 0.974 | > 10.2 | 0.977 | > 0.1
5637 (bladder, adherent) | 0.859 | 0.363 | 0.103 | < 0.0625 | 0.823 | 1.03 | 0.882 | 9.1 | 0.974 | > 0.1
OVISE (ovary, adherent) | 0.968 | > 0.512 | 0.695 | 4.27 | 0.804 | 1.41 | 0.893 | > 10.2 | 0.978 | > 0.1
PANC-08-13 (pancreas, adherent) | 0.945 | > 0.512 | 0.614 | 2.24 | 0.981 | > 2 | 0.864 | > 10.2 | 0.98 | > 0.1
SKG-IIIa (cervix, adherent) | 0.952 | > 0.512 | 0.379 | 0.415 | 0.968 | > 2 | 0.983 | > 10.2 | 0.98 | > 0.1
NCI-H1688 (small cell lung carcinoma, adherent) | 0.976 | > 0.512 | 0.496 | 0.974 | 0.987 | > 2 | 0.873 | > 10.2 | 0.985 | > 0.1
RPMI-7951 (melanoma, adherent) | 0.911 | > 0.512 | 0.235 | 0.175 | 0.957 | > 2 | 0.901 | > 10.2 | 0.927 | > 0.1
SKN (uterus, adherent) | 0.735 | 0.176 | 0.57 | 1.62 | 0.884 | > 2 | 0.982 | > 10.2 | 0.969 | > 0.1
RERF-LC-Sq1 (lung squamous cell carcinoma, adherent) | 0.963 | > 0.512 | 0.616 | 2.43 | 0.796 | 1.49 | 0.944 | > 10.2 | 0.976 | > 0.1
SBC-3 (small cell lung carcinoma, adherent) | 0.787 | 0.2 | 0.189 | 0.133 | 0.989 | > 2 | 0.884 | 9.31 | 0.987 | > 0.1
KYSE-50 (oesophagus, adherent) | 0.821 | 0.263 | 0.421 | 0.621 | 0.982 | > 2 | 0.879 | 8.93 | 0.989 | > 0.1
Hs766T (pancreas, adherent) | 0.88 | > 0.512 | 0.638 | 2.73 | 0.861 | > 2 | 0.984 | > 10.2 | 0.973 | > 0.1
H2461 (mesothelioma, adherent) | 0.897 | > 0.512 | 0.619 | 2.31 | 0.96 | > 2 | 0.977 | > 10.2 | 0.928 | > 0.1
CHP-212 (neuroblastoma, adherent) | 0.724 | 0.131 | 0.066 | < 0.0625 | 0.91 | > 2 | 0.988 | > 10.2 | 0.974 | > 0.1
KYSE-220 (oesophagus, adherent) | 0.883 | > 0.512 | 0.451 | 0.729 | 0.808 | 1.11 | 0.9 | > 10.2 | 0.973 | > 0.1
SNU-449 (liver, adherent) | 0.712 | 0.135 | 0.685 | 3.48 | 0.952 | > 2 | 0.911 | > 10.2 | 0.983 | > 0.1
OVMIU (ovary, adherent) | 0.922 | > 0.512 | 0.453 | 0.722 | 0.818 | 1.51 | 0.777 | 5.2 | 0.887 | > 0.1
H2595 (mesothelioma, adherent) | 0.905 | > 0.512 | 0.5 | 1 | 0.98 | > 2 | 0.979 | > 10.2 | 0.941 | > 0.1
U-118-MG (glioma, adherent) | 0.965 | > 0.512 | 0.643 | 2.65 | 0.851 | 1.91 | 0.968 | > 10.2 | 0.984 | > 0.1
Hs-578-T (breast, adherent) | 0.946 | > 0.512 | 0.772 | 6.57 | 0.969 | > 2 | 0.987 | > 10.2 | 0.975 | > 0.1
VMRC-RCZ (kidney, adherent) | 0.846 | 0.469 | 0.273 | 0.201 | 0.929 | > 2 | 0.936 | > 10.2 | 0.978 | > 0.1

The IC50 comes from the fitted curve, where viability falls to half of the control; fits outside the tested doses are given as limits. AUC is the area under the same curve over the 256-fold range up to the top dose, as a fraction: 1 means no effect, lower means more sensitive. For some of these results: An inferred top dose comes from the curve model; the source does not state it.
